Results: PubChem BioAssay AID1347043 (National Center for Advancing Translational Sciences (NCATS), 2019)
Screen size: about 76,000 compounds; about 1,900 (2.5%) were called active. The shares of active, inactive and inconclusive entries below differ from those in the screen. Calls follow the shape of the dose curve; as a rule, active = well fitted inhibition curve with a large enough effect; inconclusive = small, poorly fitted or top-dose-only effect; inactive = flat fitted curve, though single readings scatter. Where the call is inconclusive, the potency comes from a doubtful curve fit.
Also: nearly all actives have a fitted effect of over 65% in size.
Potency is read from the fitted curve at half-maximal effect; tags tell the direction and shape of the fitted curve.

The compounds below were run against Luciferin 4-monooxygenase (Photinus pyralis) (UniProt P08659) (assay: Firefly luciferase inhibition profiling of diverse chemical library using quantitative high-throughput screening). Conditions: purified P. pyralis luciferase, luminescence, biochemical; series mostly up to 115 µM.
Chain of UniProt P08659 (P08659 whole entry, looked up): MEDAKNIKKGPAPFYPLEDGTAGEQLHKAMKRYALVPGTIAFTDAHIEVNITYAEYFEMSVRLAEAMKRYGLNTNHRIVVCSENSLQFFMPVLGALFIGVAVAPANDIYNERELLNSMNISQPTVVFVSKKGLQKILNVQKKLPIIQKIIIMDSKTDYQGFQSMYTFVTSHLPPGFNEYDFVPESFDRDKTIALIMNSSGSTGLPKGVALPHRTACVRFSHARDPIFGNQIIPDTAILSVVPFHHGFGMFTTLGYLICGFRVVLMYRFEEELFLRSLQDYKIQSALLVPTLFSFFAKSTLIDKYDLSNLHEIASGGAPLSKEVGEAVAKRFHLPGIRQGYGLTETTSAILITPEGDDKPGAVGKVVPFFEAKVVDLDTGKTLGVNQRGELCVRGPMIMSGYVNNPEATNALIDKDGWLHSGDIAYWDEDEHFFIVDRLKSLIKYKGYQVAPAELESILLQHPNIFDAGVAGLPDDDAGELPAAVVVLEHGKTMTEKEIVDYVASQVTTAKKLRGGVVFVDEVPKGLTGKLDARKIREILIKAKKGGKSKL
In short: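 Purified P. pyralis luciferase (10nM final) in 50mM Tris acetate pH 7.5, 10mM Mg acetate, 0.01% Tween-20, 0.05% BSA with 10uM D-luciferin and 10uM ATP. Compounds titrated qHTS. Luminescence imaged on CCD.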
`CCOC(=O)C1=CN(CC(=O)Nc2ccc(C)cc2)S(=O)(=O)N=C1C` was tested, and the Potency was “inactive”.
For `CC1Oc2ccc(NC(=O)Cc3ccc(F)cc3)cc2CN(Cc2ccccc2F)C1=O` (configuration not stated), the Potency was inconclusive: 50.1 µM [inhibitor, partial curve, poor fit].
For `COc1ccc(/C=C/c2ccc3c(c2)C(=O)N2C[C@@H](NC(=O)CC(C)(C)CC(=O)O)C[C@H]2C(=O)N3)cc1`, the Potency was inconclusive: 44.7 µM [inhibitor, partial curve].
For `Cn1ccc(NC(=O)c2ccc3c(c2)NC(C)(COc2ccccc2)CO3)n1` (configuration not stated), the Potency was inconclusive: 112 µM [inhibitor, single point].
For `Clc1cccc(-c2ccc(CNc3ncncn3)o2)c1`, the Potency was inconclusive: 44.7 µM [inhibitor, partial curve].
In the case of `Cc1ccc(-n2nc(C)c([C@@H]3C=C[C@@H](NC(=O)c4cccs4)C3)c2C)cc1Cl`, the Potency is reported as active: 25.1 µM.
In the case of `CCC1C(=O)NCCN1Cc1cn(-c2cccc(F)c2)nc1-c1ccc(C)o1` (configuration not stated), the Potency is reported as active: 28.2 µM.
`COc1ccc(NC(=O)O[C@@H]2CO[C@H]3[C@@H]2OC[C@@H]3Nc2nccc(-c3cccs3)n2)cc1` was tested, and the Potency was inconclusive: 50.1 µM [inhibitor, partial curve].
For `O=[S+]1([O-])NC2(CCN(CC3CC3)C2)CNc2ccccc21` (configuration not stated), the Potency was “inactive”.
With `COc1cccc(C2Cn3nnc(-c4nc(-c5ccc(C)cc5)no4)c3CO2)c1` (configuration not stated) the Potency was inconclusive: 28.2 µM [inhibitor, partial curve].
With `O=C1CN(Cc2ccc(-c3cnc4c(OCc5ccccc5)nccn34)cc2)CCN1` the Potency was inconclusive: 112 µM [inhibitor, single point].
In the case of `O=C(N[C@H]1CCN2C(=O)c3cc(-c4ccc(Cl)cc4)ccc3NC(=O)[C@H]12)C1CCCC1`, the Potency is reported as inconclusive: 44.7 µM [inhibitor, partial curve].
`CCN(Cc1cccnc1)C(=O)c1cc(-c2cnn(CC)c2)nc2cc(C)ccc12` was tested, and the Potency was inconclusive: 39.8 µM [inhibitor, full curve].
In the case of `COC(=O)c1cccc(NC(=S)N[C@H]2CO[C@H]3[C@@H]2OC[C@@H]3n2nnnc2-c2ccc3c(c2)OCO3)c1`, the Potency is reported as inconclusive: 44.7 µM [inhibitor, partial curve].
In the case of `Cc1c(C2c3nc[nH]c3CCN2Cc2ccc(CO)o2)oc2ccccc12` (configuration not stated), the Potency is reported as inconclusive: 70.8 µM [inhibitor, partial curve, poor fit].
`COCCN1C(=O)CCc2cc(NC(=O)c3ccc(Cl)s3)ccc21` was tested, and the Potency was inconclusive: 50.1 µM [inhibitor, partial curve].
For `COc1ccccc1N1CCN(C2CCCN(Cc3cccc(C)n3)C2)CC1` (configuration not stated), the Potency was “inactive”.
In the case of `Cc1ccc(-c2cc(N3CCCN(C(=O)c4cccc(N(C)C)c4)CC3)n[nH]2)cc1C`, the Potency is reported as inconclusive: 50.1 µM [inhibitor, partial curve].
In the case of `CC(C)n1ccc2c(NC(=O)Cn3nc4c(cc3=O)CCCCC4)cccc21`, the Potency is reported as inconclusive: 50.1 µM [inhibitor, partial curve].
`Cc1ccc(C2Cn3nnc(C(=O)N4CCC(C(=O)NCc5ccccc5)CC4)c3CO2)cc1` (configuration not stated) was tested, and the Potency was active: 39.8 µM.
In the case of `Cc1ccc(C(=O)N2CCC(N3C(=O)C4(CCCC4)C3c3scnc3C)CC2)cn1` (configuration not stated), the Potency is reported as “inactive”.
For `Cc1ccc(CN2C(=O)[C@@H]3C[C@@H](O)CN3C3(CN(C4CCC4)C3)C2=O)o1`, the Potency was “inactive”.
In the case of `Cc1nn(-c2ccccc2)c(C)c1[C@@H]1C=C[C@@H](NCc2ccc(F)cc2)C1`, the Potency is reported as inconclusive: 79.4 µM [inhibitor, partial curve].
`O=C(NCCc1ccccc1)NC1CCN(C(=O)N2CC3CC(C2)[C@H]2CCCC(=O)N2C3)CC1` (some centres not stated) was tested, and the Potency was “inactive”.
For `COCCN1CCOC[C@H]2CCN(C(=O)c3ccoc3)C[C@H]21`, the Potency was inconclusive: 39.8 µM [inhibitor, partial curve].
`CS(=O)(=O)N1CCc2ccc(C(=O)Nc3ccc(F)cc3Cl)cc21` was tested, and the Potency was inconclusive: 8.91 µM [inhibitor, full curve].
`COc1ccc(-n2nc(C3CCN(Cc4ccccc4)CC3)[nH]c2=O)cc1` was tested, and the Potency was “inactive”.
In the case of `CC(=O)Nc1cccc(C(=O)NCCn2ccn3nc(-c4ccc(C)cc4C)cc3c2=O)c1`, the Potency is reported as active: 5.01 µM.
With `CNC(=O)c1cccc(-c2cnc3[nH]cc(CC(=O)N(C)C)c3c2)c1` the Potency was inconclusive: 79.4 µM [inhibitor, partial curve, poor fit].
With `O=c1c2nc(-c3ccc(O)c(F)c3)ccc2ncn1-c1ccccc1` the Potency was inconclusive: 89.1 µM [inhibitor, partial curve].
`CCCn1nccc1C(=O)NCc1cccnc1Oc1ccc(C)nc1` was tested, and the Potency was “inactive”.
`O=C(NC[C@H]1O[C@@H](CC(=O)N2CCc3ccccc32)[C@H](O)[C@@H]1O)Nc1cccc(F)c1` was tested, and the Potency was inconclusive: 79.4 µM [inhibitor, partial curve].
In the case of `CN1CCC(Cc2ccc(C(=O)NCC3CCCCC3)cc2)CC1`, the Potency is reported as inconclusive: 79.4 µM [inhibitor, partial curve].
With `CC1(CNC(=O)c2ccc3ccccc3n2)CCOCC1` the Potency was inconclusive: 44.7 µM [inhibitor, partial curve].
In the case of `Cc1[nH]c2ccc(C(=O)N3CCC4(CCCN(C)C4=O)C3)cc2c1C` (configuration not stated), the Potency is reported as inconclusive: 44.7 µM [inhibitor, partial curve].
In the case of `CN1CCCCCC(O)c2cc(C(=O)NCCC3=CCCCC3)ccc21` (configuration not stated), the Potency is reported as inconclusive: 44.7 µM [inhibitor, partial curve].
With `Cc1ccc(-n2ncc3c2CCCC3NS(=O)(=O)N2CCCC2)cc1C` (configuration not stated) the Potency was inconclusive: 50.1 µM [inhibitor, partial curve].
`N#Cc1cccc(C(=O)N2CCC(n3cc(-c4nc(-c5ccccc5)no4)nn3)CC2)c1` was tested, and the Potency was “inactive”.
For `CCc1nc2c(c(-c3ccc(Cl)cc3)n1)CN(C(=O)c1ccc(C(F)(F)F)cc1)CC2`, the Potency was “inactive”.
In the case of `O=C(c1ccccn1)N1CCCC(CN2CCCC2)CC1` (configuration not stated), the Potency is reported as “inactive”.
`CN1c2cc(C(=O)NCc3ccccc3Br)ccc2C(=O)N2CCCCC21` (configuration not stated) was tested, and the Potency was inconclusive: 25.1 µM [inhibitor, partial curve].
`O=C(Nc1ccc2c(c1)CN(Cc1ccccc1F)C(=O)CO2)c1ccc(F)cc1` was tested, and the Potency was inconclusive: 44.7 µM [inhibitor, partial curve].
